Measured values reported in PubChem BioAssay AID1745853 (National Center for Advancing Translational Sciences (NCATS), 2022).
The list shows a part of the results. The main result of the screen is listed elsewhere. These columns were measured beside it and carry no call.

What was measured:
Assay in all cases: Primary Screen for Target Class Profiling of Small Molecule Inhibitors of Methyltransferases
[1] = biological target: Glycine N-methyltransferase (Homo sapiens) (UniProt Q14749); conditions: purified enzyme, MTase-Glo SAH luminescence; measured here: GNMT inhibition; at 40 µM; stronger effect = lower value
Outline: (§1)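 Each enzyme was reacted with SAM and its substrate, with compounds tested once at 40 uM; SAH formed was read by MTase-Glo luminescence.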

[2] = biological target: Guanidinoacetate N-methyltransferase (Homo sapiens) (UniProt Q14353); conditions: purified enzyme, MTase-Glo SAH luminescence; measured here: GAMT inhibition; at 40 µM; stronger effect = lower value
Outline: as §1

[3] = biological target: Histamine N-methyltransferase (Homo sapiens) (UniProt P50135); conditions: purified enzyme, MTase-Glo SAH luminescence; measured here: HNMT inhibition; at 40 µM; stronger effect = lower value
Outline: as §1

[4] = biological target: Nicotinamide N-methyltransferase (Homo sapiens) (UniProt P40261); conditions: purified enzyme, MTase-Glo SAH luminescence; measured here: NNMT inhibition; at 40 µM; stronger effect = lower value
Outline: as §1

[5] = biological target: Phenylethanolamine N-methyltransferase (Homo sapiens) (UniProt P11086); conditions: purified enzyme, MTase-Glo SAH luminescence; measured here: PNMT inhibition; at 40 µM; stronger effect = lower value
Outline: as §1
% is set by controls: 0 for no effect and ±100 for the full control effect.

| SMILES | activity change, negative = inhibition [1] [%] | activity change, negative = inhibition [2] [%] | activity change, negative = inhibition [3] [%] | activity change, negative = inhibition [4] [%] | activity change, negative = inhibition [5] [%] |
| --- | --- | --- | --- | --- | --- |
| COc1ccc(CN2C(=O)c3cc(-c4ccccc4)nn3CC2(C)C(=O)NCc2ccccc2)cc1 (stereo not given) | 1.07 | 4.72 | 2.15 | -5.01 | 1.09 |
| COc1ccc2cc3n(c2c1)CC(C)(C(=O)NCC1CCCO1)N(CCc1ccccc1)C3=O (stereo not given) | 4.23 | 0.183 | 4.68 | 8.91 | 0.196 |
| CC(=O)O[C@@H]1CC[C@@]2(C)[C@H](CC[C@@H]3[C@@H]2C[C@H](OC(C)=O)[C@]2(C)[C@@H](C(C)=O)CC[C@@H]32)C1 | -2.62 | 7.02 | -0.094 | -20.7 | -11 |
| COC(=O)c1ncn2c1C(=O)N(Cc1cccc(OC)c1OC)C(C)(C(=O)NC1CCCCC1)C2 (stereo not given) | 3.68 | 6.06 | 5.63 | 6 | 1.88 |
| COc1cccc(CN2C(=O)c3cc4ccc(OC)cc4n3CC2(C)C(=O)NC2CCCC2)c1 (stereo not given) | 2.02 | 2.24 | 5.06 | -0.921 | 0.193 |
| CCCn1c(=O)c2ccc(C(=O)NCC(C)C)cc2n2c(=O)n(Cc3cccc(C)c3)nc12 | 4.02 | 3.41 | 11.8 | -3.48 | 3.85 |
| CCOc1ccccc1C(=O)NC1CCN(c2cc(C)cc(C)c2)C1=O (stereo not given) | -4.21 | 1.5 | 0.575 | -1.78 | -1.03 |
| CCOc1ccc(CCN2C(=O)Cn3cccc3C2C(=O)NC2CCC(C)CC2)cc1 (stereo not given) | -5.78 | 2.41 | -2.25 | -1.1 | -5.26 |
| COCCCNC(=O)C1(C)Cn2nc(-c3ccccc3)cc2C(=O)N1Cc1cc(OC)ccc1OC (stereo not given) | -0.332 | 1.66 | 5.14 | 9.3 | 1.95 |
| O=C(CCn1ccc2cc(S(=O)(=O)N3CCCCC3)ccc21)NCc1cccs1 | 3.38 | 0.162 | 3.92 | 1.69 | 1.4 |
| CCN(CC)Cc1cnc2c(C(=O)N3CCCN4CCC[C@H]4C3)cnn2c1 | -9.81 | -13.9 | -16.7 | -19.1 | -14.7 |
| CCCN1C(=O)c2ccc(-c3ccco3)n2CC1(C)C(=O)NC1CCCCCCC1 (stereo not given) | -0.569 | 0 | 1.64 | -9.09 | -3.13 |
| CCC(C)NC(=O)c1ccc2c(=O)n(C)c3nn(CC(=O)Nc4ccccc4C)c(=O)n3c2c1 (stereo not given) | 4.97 | 0 | 5.76 | 2.9 | 2.49 |
| O=C(Nc1ccncc1)c1cc([N+](=O)[O-])ccc1Cl | -0.48 | 7.09 | 4.04 | -2.04 | 7.87 |
| CCOC(=O)C1CCN(C(=O)C2COC3(CCCCC3)N2C(=O)c2cc(F)cc(F)c2)CC1 (stereo not given) | -2.11 | -0.037 | -0.2 | -9.76 | 9.29 |
| O=C(CCCN1CCN(c2ccccn2)CC1)c1ccc(F)cc1 | 0.31 | 8.69 | 10.1 | -8.45 | 2.71 |
